# Laboratory results: publication PMC4336329 (PLoS ONE, 2015)
# In all, about 310,000 compounds went through this assay and about 14,000 (4.5%) showed an effect of 50% or more. The effect is printed as a negative number. The list shows a part of the results.
# Molecular target: human ether-à-go-go-related gene (hERG) potassium channel (human, UniProt Q12809)
# Test: primary screen, population patch clamp on CHO cells stably expressing hERG
# 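Note: peak tail current of the secondary pulse compared with the same well before compound.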
# Sequence of human ether-à-go-go-related gene (hERG) potassium channel (Q12809 whole entry, looked up): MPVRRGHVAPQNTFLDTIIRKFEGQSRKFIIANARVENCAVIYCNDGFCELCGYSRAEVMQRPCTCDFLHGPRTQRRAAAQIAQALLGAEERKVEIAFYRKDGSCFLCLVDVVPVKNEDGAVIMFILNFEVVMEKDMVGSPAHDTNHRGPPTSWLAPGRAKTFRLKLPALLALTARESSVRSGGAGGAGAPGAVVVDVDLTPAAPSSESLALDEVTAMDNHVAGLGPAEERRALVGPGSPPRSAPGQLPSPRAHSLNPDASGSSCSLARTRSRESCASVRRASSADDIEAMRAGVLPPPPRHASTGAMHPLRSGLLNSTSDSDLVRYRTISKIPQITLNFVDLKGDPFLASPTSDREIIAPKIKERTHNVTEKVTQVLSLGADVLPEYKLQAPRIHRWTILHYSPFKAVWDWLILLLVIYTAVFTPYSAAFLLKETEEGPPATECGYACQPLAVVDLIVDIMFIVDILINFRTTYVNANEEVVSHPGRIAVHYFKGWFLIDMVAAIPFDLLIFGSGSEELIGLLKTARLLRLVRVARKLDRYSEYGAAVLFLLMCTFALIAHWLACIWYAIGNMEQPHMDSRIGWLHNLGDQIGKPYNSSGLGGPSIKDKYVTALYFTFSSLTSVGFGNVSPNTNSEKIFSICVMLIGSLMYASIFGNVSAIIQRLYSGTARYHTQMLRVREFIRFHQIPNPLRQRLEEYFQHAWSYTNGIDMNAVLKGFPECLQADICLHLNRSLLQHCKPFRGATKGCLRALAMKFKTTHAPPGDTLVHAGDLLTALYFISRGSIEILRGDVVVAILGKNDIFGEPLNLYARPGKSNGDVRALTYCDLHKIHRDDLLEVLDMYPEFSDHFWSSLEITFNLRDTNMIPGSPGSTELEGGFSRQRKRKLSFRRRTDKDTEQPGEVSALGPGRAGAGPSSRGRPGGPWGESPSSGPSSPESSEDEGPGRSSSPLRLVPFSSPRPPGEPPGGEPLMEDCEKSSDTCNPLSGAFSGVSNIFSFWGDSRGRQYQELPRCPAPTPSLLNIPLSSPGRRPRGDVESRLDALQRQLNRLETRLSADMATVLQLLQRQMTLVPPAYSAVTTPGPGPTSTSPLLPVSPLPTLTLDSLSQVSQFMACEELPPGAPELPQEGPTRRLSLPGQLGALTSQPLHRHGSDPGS
row,Structure (SMILES),"hERG current change (%, negative = inhibition) at 10uM"
1,COc1ccc(CCC(=O)N2CC(C)OC(C)C2)cc1 (stereo not shown),5.02%
2,CC(=O)c1ccc(S(=O)(=O)N2CCC3(CC2)CC(=O)c2ccccc2O3)cc1,-42.6%
3,COc1cc(/C=N/N=C2/NC(=O)C(CC(=O)O)S2)ccc1OCc1cccc(Cl)c1 (stereo not shown),24.7%
4,O=C(Cn1nc(-c2ccccc2)ccc1=O)Nc1ccc(-n2cnnn2)cc1,-14.8%
5,COc1ccc(OC)c(CC(NC(C)=O)C(=O)NC2CCN(S(=O)(=O)c3ccc(NC(C)=O)cc3)CC2)c1 (stereo not shown),-8.43%
6,CC(=O)c1cccc(NC(=O)c2ccc(S(=O)(=O)N3CC(C)OC(C)C3)cc2)c1 (stereo not shown),6.36%
7,CCCCn1c(N)c(N(CCOC)C(=O)COC(=O)/C=C/c2ccc(Br)cc2)c(=O)[nH]c1=O,-3.06%
8,Cc1nc(NNC(=O)c2ccc(Cl)cc2Cl)cc(-c2ccccc2)n1,6.97%
9,COCCNC(=S)N(C)C1(c2ccccc2Cl)CCCCC1=O (stereo not shown),38.3%
10,Cc1ccc(C)n1-n1cnc2sc3c(c2c1=O)CCC3,-7.03%
11,O=[N+]([O-])c1ccc(C2C3C(c4ccccc4)=NC4(CCCCC4)N32)cc1 (stereo not shown),-1.45%
12,Cn1c(-c2ccc(C(F)(F)F)cc2)cc2onc(-c3ccccc3)c2c1=O,7.65%
13,CC(/C=N/NC(=O)Cc1cccn1C)=C\c1ccccc1,-11%
14,CCc1nnc(NC(=O)c2ccc(S(=O)(=O)N(C)Cc3ccccc3)cc2)o1,-25.6%
15,CCCC(=O)N(CCc1ccccc1)Cc1nc2ccccc2c(=O)[nH]1,-15.2%
16,COc1ccc(CNC(=O)/C=C/c2ccc(OCCCF)cc2)cc1OC,-11.2%
17,O=C(CSc1ccc(-c2ccccn2)nn1)c1ccc([N+](=O)[O-])cc1,0.0194%
18,CCCCC(=O)Nc1ccc(NC(=O)c2cccs2)cn1,-18.8%
19,COc1ccc(C(=O)N/C(=C\c2ccc([N+](=O)[O-])cc2)C(=O)NC(CCSC)C(=O)O)cc1 (stereo not shown),9.2%
20,Cn1nnnc1SCC(=O)Nc1ccc(Br)cc1Cl,-0.151%
21,CN(Cc1ccc(N(C)C)cc1)C(=O)c1cc2ccccc2o1,-18.5%
22,Cc1ccc2nsnc2c1S(=O)(=O)NCCc1c(C)[nH]c2ccc(F)cc12,-19.8%

row,Structure (SMILES),"hERG current change (%, negative = inhibition) at 10uM"
1,[O-]/C(=C(\C(=S)Nc1ccc(SC(F)F)cc1)[n+]1cccc(CO)c1)c1ccc(Cl)s1,-5.05%
2,COc1ccc(OC)c(N2C(=O)CC(Cc3cc(C)cc(C)c3)C2=O)c1 (stereo not shown),1.57%
3,CN(C)CCCN(C(=O)c1ccco1)c1nc2ccc(F)cc2s1.Cl,-70.5%
4,CCOCc1nnc(NC(=O)C2c3ccccc3Oc3ccccc32)s1,32.8%
5,Cc1sc2nc(CN(Cc3ccccc3)C(=O)NC3CCCCC3)[nH]c(=O)c2c1C,9.46%
6,COC(=O)c1c(-c2c(Cl)cccc2Cl)noc1NC(=O)N(C)C,22.7%
7,CCOCC(=O)Nc1c(C(=O)Nc2ccc3c(c2)OCCO3)oc2ccccc12,0.258%
8,COc1ccc(N2CCN(C(=O)CCCC3=NS(=O)(=O)c4ccccc4N3)CC2)cc1,-7.68%
9,CSC1=NCCN1C(=O)C(C)Oc1ccccc1 (stereo not shown),19.1%
10,CCC(C)NC(=O)CSC1=Nc2ccccc2C2=NC(c3ccccc3)C(=O)N12 (stereo not shown),-55.3%
11,Cc1ccc(S(=O)(=O)N2CCN(C(=O)CSc3nnnn3C)C2)cc1,-15.5%
12,CCOC(=S)SCC(=O)N1CCc2cc(OC)ccc2C1C1C(=O)CCCC1=O (stereo not shown),26%
13,CCCCc1ccc(N2C(=O)[C@@H]3C(CC(N)=O)NC4(C(=O)Nc5ccc(F)cc54)[C@@H]3C2=O)cc1 (stereo partly shown),-0.929%
14,Cc1nn(CCC(=O)NCc2ccc(OC(C)C)cc2)c(=O)c2nn(-c3ccccc3)c(C)c12,-11.9%
15,Cc1ccc(-n2c(C)cc(C(=O)Cn3nc(C(=O)O)c4ccccc4c3=O)c2C)cc1,16.1%
16,COc1ccc(OC)c(S(=O)(=O)N2CCCCC2C(=O)N2CCN(c3ccccn3)CC2)c1 (stereo not shown),-18.8%
17,Fc1ccc(-c2nnc(Cc3ccc(Cl)cc3)o2)cc1,-16.7%
18,CN(C)CC#CCCCCCCC#CCN(C)C,3.84%
19,COCCNC(=O)c1cc(S(=O)(=O)N2CCCCC2)ccc1N1CCOCC1,1.23%
20,Cc1ccc(NCc2nnc(SCC(=O)Nc3ncc(C)s3)n2Cc2ccco2)c(C)c1,15.7%
21,CC(=O)c1ccc(OCCCC(=O)N2CCN(S(=O)(=O)c3cc(C)ccc3C)CC2)cc1,-37.1%
22,O=C(CCN1C(=O)C2CCCCC2C1=O)Nc1cc([N+](=O)[O-])ccc1Cl (stereo not shown),-1.62%

row,Structure (SMILES),"hERG current change (%, negative = inhibition) at 10uM"
1,Cc1ccccc1NS(=O)(=O)c1nnc(NC(=O)c2ccc(Cl)cc2)s1,2.36%
2,O=C(Nc1ccccc1Cl)Nc1ccnn1C1CCN(C(=O)c2cscn2)CC1,21.8%
3,CCCCC(CC)CNC(=O)Cn1c(=S)[nH]c2ncccc2c1=O (stereo not shown),14.6%
4,CCN(CC)P(=O)(Oc1cccc(C)c1)N(CC)CC,0.586%
5,CCOC(=O)CC(=O)Nc1ccc(Br)cc1C(=O)O,-11.3%
6,O=C(CCn1nc(-c2ccc(Cl)cc2)ccc1=O)N1CCOCC1,-36.9%
7,CCOCCCNC(=O)C(NC(=O)c1cnccn1)c1ccc(OC)cc1 (stereo not shown),1.22%
8,O=[N+]([O-])c1ccc(Oc2ccc(Oc3ccc(C(F)(F)F)cn3)cc2)nc1,-1.44%
9,C=C1c2cc(C)c(C)cc2NC(=O)N1c1ccccc1,23%
10,Cc1cc(S(=O)(=O)N2CCCCC2CCNC(=O)C(=O)NCc2cccnc2)ccc1F (stereo not shown),-21.8%
11,N#Cc1cc2c(nc1SCc1cccc(Cl)c1)CCCCC2,8.72%
12,COc1cccc(C2SCC(=O)N2c2ccc(C)cc2)c1OC (stereo not shown),-22.3%
13,O=C(NC12CC3CC(CC(C3)C1)C2)c1cccnc1,6.74%
14,COc1ccc(-c2noc(CCCC(=O)Nc3ccc(C(N)=O)cc3)n2)cc1OC,3.17%
15,O=C(O)CCN(CCC(=O)O)c1ccccc1,3.16%
16,COC(=O)c1c(NC(=O)c2ccnn2C)sc(C)c1C,4.07%
17,COc1ccc(C(=O)N/C(N)=N/c2nc3ccccc3o2)cc1,-0.953%
18,CC(NC(=O)Cc1cccc(C(F)(F)F)c1)c1ccc(F)cc1 (stereo not shown),17.6%
19,Cc1ccc2c(CN3CCCCC3CCO)cc(=O)oc2c1 (stereo not shown),-45.9%
20,Cc1ccc(S(=O)(=O)N2CCN(C(=O)c3ccccc3)C2C(C)C)cc1 (stereo not shown),5.42%
21,C#CCOCCOCCOCCNc1nc(N2CCN(C(=O)CCCCCCCCCCNC(=O)[C@H](CO)n3cc(CCCSC)nn3)CC2)nc(N2CCN(C(=O)CCCCCCCCCCNC(=O)[C@@H]([C@H](C)O)n3cc(C)nn3)CC2)n1,8.18%
22,O=C(CN1C(=O)c2ccc([N+](=O)[O-])cc2C1=O)NCc1ccc(C(=O)O)cc1,13.8%

row,Structure (SMILES),"hERG current change (%, negative = inhibition) at 10uM"
1,c1ccc(-c2nnc(-c3ccccn3)nc2NC2CCCCC2)cc1,-11.6%
2,O=C(NC(=S)Nc1ccccc1N1CCN(C(=O)c2ccccc2)CC1)c1ccccc1F,2.77%
3,Cc1cc(C)c(NC(=O)OCCN2CCOCC2)c(C)c1,13.1%
4,Cc1ccc(-c2nc(CS(=O)(=O)CC(=O)N3CC(C)CC(C)C3)c(C)o2)cc1 (stereo not shown),-13.6%
5,CN(C)C(=O)OCC1COc2ccccc2O1 (stereo not shown),14.6%
6,Cc1cc(C)cc(C(=O)Nc2ccc3[nH]c(=O)[nH]c3c2)c1,14.6%
7,CC(Sc1ccc2c(c1)OCCO2)C(=O)Nc1ccc(N2CCOCC2)cc1 (stereo not shown),-14.6%
8,COc1ccc(-c2nnn(CC(=O)N(CCO)C(C(=O)NC3CCCC3)c3ccncc3)n2)cc1 (stereo not shown),10.9%
9,CC(NC(=O)CSc1n[nH]c(N)n1)c1ccccc1 (stereo not shown),11.8%
10,Cc1cc(-c2ccccc2C(=O)NC2CCCCC2)on1,1.21%
11,CC(C)CCN1C(=O)c2ccc(C(=O)NCc3ccccn3)cc2C1=O,-34.2%
12,Cc1ccnc2nc(C(=O)OCC(=O)N3CCc4ccccc43)nn12,22.9%
13,CON(C)C(=O)Nc1ccc(Cl)cc1,23.8%
14,CCN1C(=O)c2ccc(C(=O)Nc3c(C)cc(C)cc3C)cc2C1=O,22.7%
15,CCn1c2ccc(C)cc2c2nc3cc(C(=O)O)ccc3nc21,-8.21%
16,CCCc1nn2c(=O)c(C(c3cccc(Cl)c3)c3c(O)nc4sc(CCC)nn4c3=O)c(O)nc2s1,24.4%
17,Cc1ccnc(N2CCC(C(=O)NCc3ccc4c(c3)OCO4)CC2)n1,-17.5%
18,O=C(NNc1ccc([N+](=O)[O-])cc1)C1C2CCCCC21 (stereo not shown),6.84%
19,O=S1(=O)CCN(Cc2ccc(Cl)c(Cl)c2)CC1,6.46%
